Laboratory results: PMC12515711
No constants are given. Whether binding was seen depends on the method and setting. Binding seen in cells or lysates may run through a third protein. Some binding calls cover weakened binding; strength is not graded here. Where a sequence is shown, tags or fusion partners need not be part of it. Values belong to the molecule of their own block, whether it stands above or below them.

Chains of the proteins cited; added tags and fusions are not shown.
UniProt G3X8Y1: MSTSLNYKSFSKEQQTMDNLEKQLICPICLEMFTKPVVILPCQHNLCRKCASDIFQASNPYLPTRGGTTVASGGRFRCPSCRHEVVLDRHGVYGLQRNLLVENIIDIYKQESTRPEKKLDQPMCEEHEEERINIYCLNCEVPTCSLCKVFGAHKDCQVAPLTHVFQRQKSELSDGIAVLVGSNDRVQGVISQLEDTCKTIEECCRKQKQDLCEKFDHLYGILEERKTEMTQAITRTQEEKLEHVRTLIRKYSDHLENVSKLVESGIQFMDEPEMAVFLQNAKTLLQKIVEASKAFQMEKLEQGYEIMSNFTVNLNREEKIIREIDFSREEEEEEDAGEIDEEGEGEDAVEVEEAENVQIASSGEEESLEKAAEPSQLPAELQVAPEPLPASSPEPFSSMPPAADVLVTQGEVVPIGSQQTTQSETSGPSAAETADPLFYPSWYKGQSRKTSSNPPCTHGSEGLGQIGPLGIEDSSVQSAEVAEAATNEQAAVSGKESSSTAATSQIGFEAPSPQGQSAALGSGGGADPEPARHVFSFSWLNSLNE
UniProt Q9DBC7: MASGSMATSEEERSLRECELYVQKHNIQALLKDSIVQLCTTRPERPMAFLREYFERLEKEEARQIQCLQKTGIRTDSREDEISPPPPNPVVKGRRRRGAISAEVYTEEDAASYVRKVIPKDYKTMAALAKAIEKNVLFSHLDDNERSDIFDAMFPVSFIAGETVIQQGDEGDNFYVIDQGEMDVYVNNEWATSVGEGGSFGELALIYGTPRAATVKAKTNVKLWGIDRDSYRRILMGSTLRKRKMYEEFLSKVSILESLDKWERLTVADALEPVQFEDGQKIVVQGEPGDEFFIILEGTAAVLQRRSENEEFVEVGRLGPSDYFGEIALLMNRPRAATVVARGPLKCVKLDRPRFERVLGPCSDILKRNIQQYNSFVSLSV

Key:
SNX5-FLAG (in COS-7) = target: T1, SNX5-FLAG (in COS-7) (UniProt Q9D8U8); assay: co-IP; lysates of transfected COS-7 cells; immunoprecipitated with anti-FLAG M2 agarose; western blot for Myc and FLAG
T1 sequence: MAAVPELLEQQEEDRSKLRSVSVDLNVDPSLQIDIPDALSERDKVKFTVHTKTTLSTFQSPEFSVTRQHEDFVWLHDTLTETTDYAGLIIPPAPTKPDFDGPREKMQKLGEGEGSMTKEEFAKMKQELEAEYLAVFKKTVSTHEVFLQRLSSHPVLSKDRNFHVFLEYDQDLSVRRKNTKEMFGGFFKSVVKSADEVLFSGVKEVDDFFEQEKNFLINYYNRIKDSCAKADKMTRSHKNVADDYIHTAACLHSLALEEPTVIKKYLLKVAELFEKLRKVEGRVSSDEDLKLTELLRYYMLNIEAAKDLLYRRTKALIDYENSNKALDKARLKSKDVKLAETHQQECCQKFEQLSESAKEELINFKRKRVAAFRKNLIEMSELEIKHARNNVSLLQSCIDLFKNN

[1] = target: T2, SNX5-Myc (His)6 (in C2C12) (UniProt Q9D8U8); assay: co-IP; C2C12 cells transduced with SNX5-Myc (His)6 or eGFP control vector; Nickel-NTA IP; western blot for Myc and RI-α
T2 sequence: T1 sequence

SNX5-FLAG (in HEK293) = target: T3, SNX5-FLAG (in HEK293) (UniProt Q9D8U8); assay: co-IP; lysates of co-transfected HEK293 cells; immunoprecipitated with anti-FLAG M2 agarose; western blot for Myc and FLAG
T3 sequence: T1 sequence

SNX5-PX-FLAG (in HEK293) = target: T4, SNX5-PX-FLAG (in HEK293) (UniProt Q9D8U8); assay: as above
T4 sequence: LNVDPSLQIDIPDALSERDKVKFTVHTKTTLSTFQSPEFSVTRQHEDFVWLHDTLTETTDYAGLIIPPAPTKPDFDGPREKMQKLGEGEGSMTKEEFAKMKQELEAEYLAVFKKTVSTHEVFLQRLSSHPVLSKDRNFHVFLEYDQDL

[2] = target: T5, SNX5-BAR-FLAG (in HEK293) (UniProt Q9D8U8); assay: as above
T5 sequence: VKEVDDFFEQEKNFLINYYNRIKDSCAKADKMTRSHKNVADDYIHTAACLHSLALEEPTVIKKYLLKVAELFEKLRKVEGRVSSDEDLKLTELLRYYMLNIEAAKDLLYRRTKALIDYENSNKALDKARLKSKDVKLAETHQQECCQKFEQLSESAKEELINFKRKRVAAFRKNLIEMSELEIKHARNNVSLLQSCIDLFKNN

binding (SNX5-FLAG (in COS-7)): binds
Molecule: MuRF2-Myc (His)6 (in COS-7) (from UniProt G3X8Y1 1-545)

binding [1]: binds
Molecule: RI-α (cAMP-dependent protein kinase type I alpha regulatory subunit) (from UniProt Q9DBC7 1-381)

binding (SNX5-FLAG (in HEK293)): binds
binding (SNX5-PX-FLAG (in HEK293)): no binding
binding [2]: binds
B1: MuRF3-Myc (His)6 (in HEK293) (protein, UniProt Q9ERP3 1-366)
chain: MNFTVGFKPLLGDAHNMDNLEKQLICPICLEMFSKPVVILPCQHNLCRKCANDVFQASNPLWQSRGSTTVSSGGRFRCPSCRHEVVLDRHGVYGLQRNLLVENIIDIYKQESSRPLHAKAEQHLMCEEHEDEKINIYCLSCEVPTCSLCKVFGAHKDCEVAPLPTIYKRQKSELSDGIAMLVAGNDRVQAVITQMEEVCQTIEDNSRRQKQLLNQRFETLCAVLEERKGELLQALAREQEEKLQRVRGLIRQYGDHLEGSSKLVESAIQSMEEPQMALYLQQAKELINKVGAMSKVELAGRPEPGYESMEQFSVSVEHVAEMLRTIDFQPGAAGDEEDDDMALDGEEGNAGLEEERLDVPEGSGLH
